Data set [1] has as its target Tau RD P301S (repeat domain of tau with P301S, CFP- or YFP-tagged) of Tau RD P301S FRET Biosensor cells. The data set can be described thus: cell-based or functional assay.
Data set [2] concerns the molecule itself. In words: non-reducing SDS-PAGE; 400 uM in 10 mM PB without DTT, 37 °C, 400 rpm; whole assembly mixture sampled at 0 h to 7 days, Laemmli buffer without BME, Coomassie; SDS-soluble species.

B1: dGAE-C322A (domain or fragment)
chain: not shown
notes: Tau protein, […] (dGAE) with C322A; Substitution of the only cysteine residue of dGAE; also called C322A dGAE; source: E. coli BL21, purified (boiling, HiTrap SP Sepharose)
Take B1: in data set [1], the “punctate fluorescence in tau Biosensor cells after 3 days with 10 uM dGAE-C322A fibrils (DSB(−))” value is 9.82 relative to control (control 1.00) and the “punctate fluorescence in tau Biosensor cells after 3 days with 10 uM sonicated dGAE-C322A fibrils (DSB(−))” value is 51.1 relative to control (control 1.00). In addition, the stoichiometry N (commonly the number of molecules, sites or subunits per partner or assembly) in data set [2] was found to be 2.

The values above are taken from publication PMC12784331, “Inhibiting Disulfide Bonding in Truncated Tau297–391 Results in Enhanced Self-Assembly of Tau into Seed-Competent Assemblies” (ACS Chemical Neuroscience, 2025).
